# The whole screen tested about 44,000 compounds, of which about 340 (0.77%) were called active. Another 5% or so got no clear call; they are omitted. Calls follow the shape of the dose curve; as a rule, active = well fitted inhibition curve with a large enough effect; inconclusive = small, poorly fitted or top-dose-only effect; inactive = flat fitted curve, though single readings scatter. Some of the results follow.
# Assay: Acumen qHTS Assay for Inhibitors of the mTORC1 Signaling Pathway in MEF (Tsc2-/-, p53-/-) Cells: Sytravon;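 also: plate controls were DMSO for no effect and rapamycin for full effect; nearly all actives have a fitted effect of over 50% in size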
# Conditions: phospho-rpS6 immunofluorescence/PI, 24 h; series mostly up to 38.3 µM; activity change, negative = inhibition: at the top concentration
# Procedure, shortened: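 Plate MEFs (Tsc2-/-, p53-/-, empty vector) in DMEM/10% FBS; after 24 h add compound, incubate 24 h at 37 degree Celsius; fix in PFA/TX-100, block, stain phospho-rpS6 and 10 uM PI; scan at 488 nm; report % positive cells.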
row,Compound,"activity change, negative = inhibition"
1,COc1ccc(Cl)cc1N(C)C(=O)C(=O)Nc1ccc2nc3n(c(=O)c2c1)CCCCC3,inactive: -3.76%
2,Cc1ccc(C)c(N2CCN(C(=O)C(C)n3c(C)c4cnn(-c5ccccc5)c(=O)c4c3C)CC2)c1 (stereo unspecified),inactive: -5.69%
3,CC(Nc1ccc(-c2nc(-c3ccccn3)no2)cc1[N+](=O)[O-])c1ccccc1 (stereo unspecified),inactive: -1.55%
4,Cc1ccc(C)c(Cn2nc(C)n3c(cc4cc(C)ccc43)c2=O)c1,inactive: 0.517%
5,COC(=O)c1ccc(OCC2c3cc(OC)c(OC)cc3CCN2C(=O)c2ccccc2F)cc1 (stereo unspecified),inactive: -0.438%
6,Cc1ccc(CNC(=O)c2c(-c3cccc(Br)c3)noc2C)o1,inactive: -18.3%
7,O=C(CSCc1cnn(-c2ccccc2)c1-n1cccc1)Nc1ccc(F)cc1F,inactive: -0.373%
8,CCc1ccc(NC(=O)C(=O)NCC(c2cccnc2)N2CCOCC2)cc1 (stereo unspecified),inactive: -2.34%
9,COC(=O)c1ccc(Cl)c(NC(=O)C2CCN(S(=O)(=O)Cc3ccccc3)CC2)c1,inactive: -5.66%
10,Cc1cccc(C(=O)Nc2cccc(OCc3cc(=O)n4c(C)csc4n3)c2)c1,inactive: 4.46%
11,CCc1ccc(NC(=O)c2cc3c(=O)n(Cc4cccnc4)ccc3nc2C)cc1,inactive: -1.59%
12,CC(C)c1nn2c(=O)cc(COC(=O)CNC(=O)c3ccccc3)nc2s1,inactive: -1.4%
13,COc1ccc(Nc2nc(N)nc(CSc3nc4cc(OC)ccc4s3)n2)cc1,inactive: -27.7%
14,COc1ccc(NC(=O)Cc2csc(COc3cccc(C)c3)n2)c(OC)c1,inactive: -0.0768%
15,COc1ccc(-c2noc(CCC(=O)NCc3ccc(OC)cc3OC)n2)cc1,inactive: 1.23%
16,COc1ccc(OCC(=O)NCCS(=O)(=O)N2CCN(c3cccc(Cl)c3)CC2)cc1,inactive: -7.58%
17,CCn1cc(C(=O)N(C)Cc2ccccc2)c(=O)c2cc(S(=O)(=O)N3CCCCCC3)ccc21,inactive: 7.56%
18,Cc1cc(C)cc(OCC(=O)N(Cc2ccc(C)o2)C2CCS(=O)(=O)C2)c1 (stereo unspecified),inactive: -6.21%
19,CCOC(=O)c1c(C)sc(-c2c(-c3ccc(OC)c(F)c3)[nH]c3c2c(=O)[nH]c(=O)n3C)c1O,inactive: 0.357%
20,CC(C)Oc1ccc(CNC(=O)c2ccc3nc(Cc4ccccc4)oc3c2)cc1,inactive: -7.96%
21,CCC(CC)C(=O)Nc1ccc2nc(SCC(=O)N3c4ccccc4CC3C)sc2c1 (stereo unspecified),inactive: 0.257%

row,Compound,"activity change, negative = inhibition"
1,COCCNC(=O)c1cc2c(Cl)nc3ccc(C)cc3c2s1,inactive: 1.15%
2,Cc1ccc(CN(Cc2ccco2)C(=O)c2oc3c(C)c(C)ccc3c2C)cc1,inactive: -7.78%
3,COc1cccc(N(CC(=O)N2CCC(C)CC2)S(=O)(=O)c2ccc(C)cc2)c1,inactive: 7.39%
4,COc1ccc(Cl)cc1NC(=O)c1c(NCc2ccc(C)o2)sc2c1CCCC2,inactive: -9.87%
5,COc1cc(OC)c(Nc2ncnc3onc(-c4cccc(Cl)c4)c23)cc1Cl,inactive: 3.18%
6,CCC(C)NC(=O)CSc1nc2cc3c(cc2c(=O)n1CCCC(=O)NCc1ccc2c(c1)OCO2)OCO3 (stereo unspecified),inactive: 0.475%
7,Clc1ccccc1Cc1cn2cc(-c3ccccc3)nc2s1,inactive: -14.4%
8,CCc1ccc(NC(=O)CSc2nnc(-c3cc4occc4n3C)n2-c2ccccc2C)cc1,inactive: -15.4%
9,Cn1c(=O)c2c(-c3ccccc3Br)n(CCc3ccccc3)cc2n(C)c1=O,inactive: -4.6%
10,CCCCOc1ccc(C2=NC(c3ccccc3)=Nc3ccc(OC)cc3N2)cc1,inactive: 0.717%
11,C=CCc1c(C)nc2nc(SCC(=O)Nc3ccc(OCC)cc3)nn2c1C,inactive: -11.2%
12,COc1ccccc1CNC(=O)Cn1nc(C)c2nn(-c3ccc(Cl)cc3)c(C)c2c1=O,inactive: -0.115%
13,CC(C)c1ccc(Nc2ncnc3c2c(-c2ccccc2)cn3-c2ccccc2)cc1,inactive: 3.98%
14,Cc1cc(C)cc(NC(=O)C2(c3cccs3)CCOCC2)c1,inactive: -10.1%
15,COc1ccccc1NC(=O)CSc1nnc2c3ccccc3n(C)c2n1,inactive: -10.4%
16,Clc1cccc(-n2ncc3c(N4CCN(Cc5ccccc5)CC4)ncnc32)c1,inactive: 10.9%
17,COc1cccc(CNC(=O)Cn2ccc3cc(S(=O)(=O)N4CCC(C)CC4)ccc32)c1,inactive: -6.4%
18,Cc1ccc(-c2nc3cccnc3s2)cc1NC(=O)Cc1ccccc1,inactive: -3.92%
19,COc1ccc(NC(=O)Cn2ccn(-c3ccccc3)c(=O)c2=O)cc1,inactive: -3.24%
20,COc1ccccc1Nc1ncnc2c1nc1n2CCCC1,inactive: -0.208%
21,Cc1ccc(-n2nc(C)c3c(C(=O)Nc4ccc(Br)c(C)c4)cc(C)nc32)cc1,inactive: 8.21%

row,Compound,"activity change, negative = inhibition"
1,COC(=O)C1=C(C)NC(=O)C1(NC(=O)c1ccccc1C)C(F)(F)F (stereo unspecified),inactive: 0.753%
2,COCCNC(=O)CSc1nc(-c2ccc(C)cc2)nc2c1c(=O)n(C)c(=O)n2C,inactive: 3.39%
3,COc1ccc(CCC(=O)NCc2ccc3c(c2)CCN3C(=O)c2ccc(C)cc2)cc1,inactive: 2.05%
4,COc1cccc(-c2nc(SCC(=O)N3CCc4ccccc43)c3c(=O)n(C)c(=O)n(C)c3n2)c1,inactive: -6.93%
5,CCOC(=O)c1c(-c2ccccc2)oc2ccc(NS(=O)(=O)c3ccc(C(C)C)cc3)cc12,inactive: 1.88%
6,Cc1cccc(OCC(=O)Nc2ccc3nc(Nc4cccc(Cl)c4)cc(C)c3c2)c1,inactive: -11.7%
7,COc1ccccc1NC(=O)c1c(NC(=O)c2ccccc2Cl)sc2c1CCC2,inactive: -0.0762%
8,CCOc1ccc(CNC(=O)CCCn2c(=O)c3cccn3c3ccc(F)cc32)cc1,inactive: 7.78%
9,CC(=O)N1CCc2c(sc3c2c(=O)n(Cc2ccccc2)c(=O)n3CC(=O)Nc2ccc(C)c(F)c2)C1,inactive: -1.22%
10,Cn1c(=O)c(=O)n(C)c2cc(NC(=O)c3ccccc3Br)ccc21,inactive: 0.236%
11,COc1ccc(CN2C(=O)C(NC(=O)c3ccccc3OC)(C(F)(F)F)N=C2c2ccccc2)cc1 (stereo unspecified),inactive: -10.1%
12,CCc1ccc(NC(=O)CCn2cnc3ccccc3c2=O)cc1,inactive: -7.84%
13,CCOC(=O)c1ccc(NC(=O)c2nn(C)c3c2COc2ccccc2-3)cc1,inactive: 1.49%
14,Cc1ccc(S(=O)(=O)c2nnn3c2nc(NCc2ccccc2Cl)c2sccc23)cc1,inactive: -2.48%
15,CC(C)c1ccc(OCc2cc(=O)n3c(-c4ccccc4)csc3n2)cc1,inactive: -10.6%
16,COc1ccc(NC(=O)CCCN2C(=O)COc3ccc(C)cc32)cc1OC,inactive: 0.164%
17,COc1cc(-c2cc(OC)c3c(C)oc(C)c3c(=O)c2)ccc1OC(=O)c1cccc(Cl)c1,inactive: -3.39%
18,CCOC(=O)c1c(NC(=O)CSc2cn(CCNC(=O)c3ccccc3F)c3ccccc23)sc2c1CCCC2,inactive: -3.66%
19,O=C(Cn1c(=O)n(-c2ccc(Cl)cc2)c(=O)c2c3c(sc21)CCC3)c1ccccc1,inactive: -0.384%

# — PubChem BioAssay AID493208 (National Center for Advancing Translational Sciences (NCATS), 2011)
